Laboratory results published in the supplement of paper PMC8512760.
Where a name gives a salt, the structure may show the parent alone. Some of the results follow. Repeats are few or missing, and single values can be far off.
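Note: stably firefly luciferase-GFP labeled cells in 96-well plates, viability read as luciferase photon flux after d-luciferin addition, treated wells normalized to vehicle wells, single-dose high-throughput screen.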

Each molecule was assayed on SUM-149 (assay: cell viability relative to vehicle (% of vehicle); basal-like triple-negative breast cancer lines; higher = less cytotoxic). Conditions: 10 µM; 72 h.
`O=CC(O)C(O)C(O)CO` (stereo not given) [Xylose] showed a cell viability of 93.7.
For `O=C(NS(=O)(=O)c1ccc(Br)s1)c1ccc(Cl)cc1Cl` [Tasisulam], the cell viability was 117.
In the case of `Cn1nnc2c(C(N)=O)ncn2c1=O` [Temozolomide], the cell viability was 172.
`CC(C(=O)O)c1ccc2c(c1)Cc1cccnc1O2` (stereo not given) [Pranoprofen] showed a cell viability of 93.6.
Work on `N.N.[Cl][Pt+2][Cl]` [Cisplatin] yielded a cell viability of 103.
For `COc1ccccc1N1CCN(CCCNc2cc(=O)n(C)c(=O)n2C)CC1.Cl` [Urapidil HCl], the cell viability was 66.3.
In the case of `Nc1ncnc2c1ncn2C1OC(CO)C(O)C1O` (stereo not given) [Vidarabine], the cell viability was 102.
With `CCOC(=O)C(CCc1ccccc1)NC(C)C(=O)N1CCCC1C(=O)O.O=C(O)C=CC(=O)O` (stereo not given) [Enalapril Maleate] the cell viability was 96.3.
For `CNC1CCC(c2ccc(Cl)c(Cl)c2)c2ccccc21.Cl` (stereo not given) [Sertraline HCl], the cell viability was 45.8.
`CC(Cn1cnc2c(N)ncnc21)OCP(=O)(O)O` (stereo not given) [Tenofovir] showed a cell viability of 117.
Work on `CS(=O)(=O)CCNCc1ccc(-c2ccc3ncnc(Nc4ccc(OCc5cccc(F)c5)c(Cl)c4)c3c2)o1.Cc1ccc(S(=O)(=O)O)cc1.Cc1ccc(S(=O)(=O)O)cc1` [Lapatinib Ditosylate] yielded a cell viability of 59.5.
Work on `CC(C)CC(NC(=O)C(NC(=O)c1cccc(-c2ccccc2)n1)C(C)O)B(O)O` (stereo not given) yielded a cell viability of 33.2.
With `CN(C)CCC=C1c2ccccc2Sc2ccc(Cl)cc21` [Chlorprothixene] the cell viability was 98.
`Nc1ccn(C2CSC(CO)O2)c(=O)n1` (stereo not given) [Lamivudine] was tested, and the cell viability was 105.
`CCCCCCCCOc1ccccc1C(=O)Nc1ccc(C(=O)OCC[N+](C)(CC)CC)cc1.[Br-]` [Otilonium Bromide] gave a cell viability of 122.
For `CCC(=O)NCCC1CCc2ccc3c(c21)CCO3` (stereo not given) [Ramelteon], the cell viability was 107.
Molecule `O=C(C=Cc1ccc(O)c(O)c1)OC1CC(O)(C(=O)O)CC(O)C1O` (stereo not given) [Chlorogenic acid] has a cell viability of 99.7.
`Cc1ccsc1C(=CCCN1CCC[C@@H](C(=O)O)C1)c1sccc1C` [Tiagabine hydrochloride] was tested, and the cell viability was 131.
`CCOC(=O)CCC(=O)OC1C(OC2C(C)C(OC3CC(C)(OC)C(O)C(C)O3)C(C)C(=O)OC(CC)C(C)(O)C(O)C(C)C(=O)C(C)CC2(C)O)OC(C)CC1N(C)C` (stereo not given) [Erythromycin Ethylsuccinate] gave a cell viability of 104.
With `CCCCNc1ccc(C(=O)OCCN(C)C)cc1.Cl` [Tetracaine HCl] the cell viability was 126.
For `CCOC(=O)n1ccn(C)c1=S` [Carbimazole], the cell viability was 113.
Work on `CCN(CC)C(=O)C1(c2ccccc2)CC1CN.Cl` (stereo not given) [Milnacipran HCl] yielded a cell viability of 113.
With `CCc1ccc(CCOc2ccc(CC3SC(=O)NC3=O)cc2)nc1` (stereo not given) [Pioglitazone] the cell viability was 136.
For `Cl.Fc1ccc(C2CCNCC2COc2ccc3c(c2)OCO3)cc1` (stereo not given) [Paroxetine HCl], the cell viability was 41.1.
In the case of `CCOC(=O)c1ccc(OC(=O)CCCCCN=C(N)N)cc1.CS(=O)(=O)O` [Gabexate mesylate], the cell viability was 136.
`COC1=CC(=O)C[C@@H](C)[C@]12Oc1c(Cl)c(OC)cc(OC)c1C2=O` [Griseofulvin] showed a cell viability of 101.
With `COc1ccc(-c2ccc3cc(C(=O)O)ccc3c2)cc1C12CC3CC(CC(C3)C1)C2` [Adapalene sodium salt] the cell viability was 116.
`Br.COc1ccc2c3c1O[C@H]1C[C@@H](O)C=C[C@@]31CCN(C)C2` [Galanthamine HBr] was tested, and the cell viability was 110.
In the case of `Cc1cnc(C(=O)O)c[n+]1[O-]` [Acipimox], the cell viability was 87.
Work on `CC1(COc2ccc3c(c2)ncn3-c2ccc3cccc(N4CCC(N)CC4)c3n2)COC1` yielded a cell viability of 48.2.
`Cc1cc(C)cc(OCC2CNC(=O)O2)c1` (stereo not given) [Metaxalone] showed a cell viability of 105.
For `CC12CCC(=O)C=C1CCC1C2C(O)CC2(C)C1CCC2(O)C(=O)CO` (stereo not given) [Hydrocortisone], the cell viability was 131.
Work on `CC1=C(CC(=O)O)c2cc(F)ccc2C1=Cc1ccc(S(C)=O)cc1` (stereo not given) [Sulindac] yielded a cell viability of 103.
Work on `CCC1OC(=O)C(C)C(OC2CC(C)(OC)C(O)C(C)O2)C(C)C(OC2OC(C)CC(N(C)C)C2O)C(C)(OC)CC(C)C(=O)C(C)C(O)C1(C)O` (stereo not given) [Clarithromycin] yielded a cell viability of 109.
Molecule `CCOc1cc2ncc(C#N)c(Nc3ccc(OCc4ccccn4)c(Cl)c3)c2cc1NC(=O)C=CCN(C)C` [Neratinib (HKI-272)] has a cell viability of 35.
For `CCOC(=O)C(CCc1ccccc1)NC(C)C(=O)N1Cc2ccccc2CC1C(=O)O.Cl` (stereo not given) [Quinapril HCl], the cell viability was 121.
`NC(=O)c1ncn(C2OC(CO)C(O)C2O)n1` (stereo not given) [Ribavirin] gave a cell viability of 134.
Work on `CC(=O)Oc1cc2c(s1)CCN(C(C(=O)C1CC1)c1ccccc1F)C2` (stereo not given) [Prasugrel] yielded a cell viability of 92.2.
`CC(CN1c2ccccc2Sc2ccccc21)N(C)C` (stereo not given) [Promethazine HCl] was tested, and the cell viability was 82.
`CCCCCCCCCCCCCCCC(=O)OCC=C(C)C=CC=C(C)C=CC1=C(C)CCCC1(C)C` [Retinyl (Vitamin A) Palmitate] was tested, and the cell viability was 106.
